Changes are numbered by the printed parent chain; changes in the protein carry UniProt numbers. The list shows a part of the results.

First the molecules themselves.
T1: RBFOX1 RRM (Homo sapiens, UniProt Q9NWB1 109-208)
T1 sequence: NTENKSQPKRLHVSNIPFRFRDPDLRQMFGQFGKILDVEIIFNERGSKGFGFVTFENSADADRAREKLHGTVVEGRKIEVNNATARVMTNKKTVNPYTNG

B1: CUAGAGG (DNA:RNA)
RNA: GGGAGACCGGAAUUCAGAUUGUCCCUAGAGGUUAAAUCCCGUCGUAGCCACCA
DNA 1: CAATCTGAATTCCGGTCTCCC
DNA 2: TGGTGGCTACGACGGGATT
B2: CGGAAGC (DNA:RNA)
RNA: B1 RNA with U26G, A27G, G28A, G31C
DNA 1: CAATCTGAATTCCGGTCTCCC
DNA 2: TGGTGGCTACGACGGGATT
B3: ACUACAU (DNA:RNA)
RNA: GGGAGACCGGAAUUCAGAUUGUCCACUACAUUUAAAUCCCGUCGUAGCCACCA
DNA 1: CAATCTGAATTCCGGTCTCCC
DNA 2: TGGTGGCTACGACGGGATT
B4: AGCACUU (DNA:RNA)
RNA: B3 RNA with C26G, U27C, A30U
DNA 1: CAATCTGAATTCCGGTCTCCC
DNA 2: TGGTGGCTACGACGGGATT
B5: AGUAGUA (DNA:RNA)
RNA: B3 RNA with C26G, C29G, A30U, U31A
DNA 1: CAATCTGAATTCCGGTCTCCC
DNA 2: TGGTGGCTACGACGGGATT
B6: GAACAGU (DNA:RNA)
RNA: B1 RNA with C25G, U26A, G28C, G31U
DNA 1: CAATCTGAATTCCGGTCTCCC
DNA 2: TGGTGGCTACGACGGGATT
B7: ACAGAAG (DNA:RNA)
RNA: B1 RNA with C25A, U26C, G30A
DNA 1: CAATCTGAATTCCGGTCTCCC
DNA 2: TGGTGGCTACGACGGGATT
B8: CUUACGA (DNA:RNA)
RNA: B3 RNA with A25C, C26U, A30G, U31A
DNA 1: CAATCTGAATTCCGGTCTCCC
DNA 2: TGGTGGCTACGACGGGATT
B9: CGGCAUG (DNA:RNA)
RNA: B1 RNA with U26G, A27G, G28C, G30U
DNA 1: CAATCTGAATTCCGGTCTCCC
DNA 2: TGGTGGCTACGACGGGATT
B10: UCGAUAG (DNA:RNA)
RNA: B3 RNA with A25U, U27G, C29U, U31G
DNA 1: CAATCTGAATTCCGGTCTCCC
DNA 2: TGGTGGCTACGACGGGATT
B11: GUGUCUA (DNA:RNA)
RNA: B3 RNA with A25G, C26U, U27G, A28U, A30U, U31A
DNA 1: CAATCTGAATTCCGGTCTCCC
DNA 2: TGGTGGCTACGACGGGATT
B12: UCCACUG (DNA:RNA)
RNA: B3 RNA with A25U, U27C, A30U, U31G
DNA 1: CAATCTGAATTCCGGTCTCCC
DNA 2: TGGTGGCTACGACGGGATT
B13: CCUGCUA (DNA:RNA)
RNA: B3 RNA with A25C, A28G, A30U, U31A
DNA 1: CAATCTGAATTCCGGTCTCCC
DNA 2: TGGTGGCTACGACGGGATT
B14: AGCUAGC (DNA:RNA)
RNA: B1 RNA with C25A, U26G, A27C, G28U, G31C
DNA 1: CAATCTGAATTCCGGTCTCCC
DNA 2: TGGTGGCTACGACGGGATT
B15: ACUCAUC (DNA:RNA)
RNA: B3 RNA with A28C, C29A, A30U, U31C
DNA 1: CAATCTGAATTCCGGTCTCCC
DNA 2: TGGTGGCTACGACGGGATT
B16: GCCUCAC (DNA:RNA)
RNA: B3 RNA with A25G, U27C, A28U, U31C
DNA 1: CAATCTGAATTCCGGTCTCCC
DNA 2: TGGTGGCTACGACGGGATT
B17: GCUUCAG (DNA:RNA)
RNA: B3 RNA with A25G, A28U, U31G
DNA 1: CAATCTGAATTCCGGTCTCCC
DNA 2: TGGTGGCTACGACGGGATT
B18: CUUGUCG (DNA:RNA)
RNA: B1 RNA with A27U, A29U, G30C
DNA 1: CAATCTGAATTCCGGTCTCCC
DNA 2: TGGTGGCTACGACGGGATT
B19: CUACUCA (DNA:RNA)
RNA: B1 RNA with G28C, A29U, G30C, G31A
DNA 1: CAATCTGAATTCCGGTCTCCC
DNA 2: TGGTGGCTACGACGGGATT
B20: UGAAACG (DNA:RNA)
RNA: B1 RNA with C25U, U26G, G28A, G30C
DNA 1: CAATCTGAATTCCGGTCTCCC
DNA 2: TGGTGGCTACGACGGGATT
B21: CAGACAA (DNA:RNA)
RNA: B3 RNA with A25C, C26A, U27G, U31A
DNA 1: CAATCTGAATTCCGGTCTCCC
DNA 2: TGGTGGCTACGACGGGATT
B22: AACUUGC (DNA:RNA)
RNA: B3 RNA with C26A, U27C, A28U, C29U, A30G, U31C
DNA 1: CAATCTGAATTCCGGTCTCCC
DNA 2: TGGTGGCTACGACGGGATT
B23: GUACGAA (DNA:RNA)
RNA: B1 RNA with C25G, G28C, A29G, G30A, G31A
DNA 1: CAATCTGAATTCCGGTCTCCC
DNA 2: TGGTGGCTACGACGGGATT
B24: CUCGACC (DNA:RNA)
RNA: B1 RNA with A27C, G30C, G31C
DNA 1: CAATCTGAATTCCGGTCTCCC
DNA 2: TGGTGGCTACGACGGGATT
B25: UGGAAUU (DNA:RNA)
RNA: B3 RNA with A25U, C26G, U27G, C29A, A30U
DNA 1: CAATCTGAATTCCGGTCTCCC
DNA 2: TGGTGGCTACGACGGGATT
B26: CGAGGCU (DNA:RNA)
RNA: B1 RNA with U26G, A29G, G30C, G31U
DNA 1: CAATCTGAATTCCGGTCTCCC
DNA 2: TGGTGGCTACGACGGGATT
B27: UGCUGUU (DNA:RNA)
RNA: B3 RNA with A25U, C26G, U27C, A28U, C29G, A30U
DNA 1: CAATCTGAATTCCGGTCTCCC
DNA 2: TGGTGGCTACGACGGGATT
B28: GAUGAUA (DNA:RNA)
RNA: B1 RNA with C25G, U26A, A27U, G30U, G31A
DNA 1: CAATCTGAATTCCGGTCTCCC
DNA 2: TGGTGGCTACGACGGGATT
B29: GGACUGU (DNA:RNA)
RNA: B1 RNA with C25G, U26G, G28C, A29U, G31U
DNA 1: CAATCTGAATTCCGGTCTCCC
DNA 2: TGGTGGCTACGACGGGATT
B30: ACGUGAU (DNA:RNA)
RNA: B3 RNA with U27G, A28U, C29G
DNA 1: CAATCTGAATTCCGGTCTCCC
DNA 2: TGGTGGCTACGACGGGATT
B31: CUAGGAU (DNA:RNA)
RNA: B1 RNA with A29G, G30A, G31U
DNA 1: CAATCTGAATTCCGGTCTCCC
DNA 2: TGGTGGCTACGACGGGATT

The experiment concerns the target T1, RBFOX1 RRM. Kind of experiment: EMSA; HiTS-Eq, 1 nM pool, 10 min; buffer printed only for the single-RNA assays: 10 mM Tris pH 7.5, 150 mM NaCl, 3.4 mM EDTA, 0.001% NP-40, 30 C. The settings on record: tags: His6 N-terminal (pET28a); label: 5' 32P. The method in brief:
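Relative association constants, normalised to the cognate motif, were derived by comparing read counts of each RNA species with those of the control reaction. The RNA sequenced was the free fraction, separated by 8% native PAGE after a 10 min equilibration in 50 µL of 1 nM 5′-radiolabelled RNA (7 randomized nucleotides) with increasing concentrations of purified wild-type or mutant RbFox RRM.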
A general note: Mobility shift assays separate free from complexed probe on a gel.
As for B1, the binding signal was 0.00494 KA relative to UGCAUGU.
The same measure for B2: 0.0209 KA relative to UGCAUGU.
With B3, the binding signal was 0.000769 KA relative to UGCAUGU.
Consider B4, for which the binding signal is 0.00435 KA relative to UGCAUGU.
Take B5: the binding signal was 0.00651 KA relative to UGCAUGU.
Consider B6, for which the binding signal was 0.0106 KA relative to UGCAUGU.
B7: the binding signal was 0.00619 KA relative to UGCAUGU.
For B8, the binding signal is 0.00902 KA relative to UGCAUGU.
In the case of B9, the binding signal is 0.573 KA relative to UGCAUGU.
The same measure for B10: 0.0169 KA relative to UGCAUGU.
B11: the binding signal is 0.0128 KA relative to UGCAUGU.
As to B12, the binding signal was 0.00657 KA relative to UGCAUGU.
As for B13, the binding signal is 0.00973 KA relative to UGCAUGU.
Take B14: the binding signal is 0.0134 KA relative to UGCAUGU.
With B15, the binding signal is 0.000194 KA relative to UGCAUGU.
For the molecule B16, the binding signal was 0.00961 KA relative to UGCAUGU.
Then B17, with 0.0196 KA relative to UGCAUGU.
Regarding B18, the binding signal is 0.0183 KA relative to UGCAUGU.
In the case of B19, the binding signal is 0.00175 KA relative to UGCAUGU.
Then B20, with 0.0162 KA relative to UGCAUGU.
On to B21, for which the binding signal was 0.00171 KA relative to UGCAUGU.
The same measure for B22: 0.00991 KA relative to UGCAUGU; for B23: 0.0118 KA relative to UGCAUGU.
With B24, the binding signal is 0.00337 KA relative to UGCAUGU.
As to B25, the binding signal was 0.0217 KA relative to UGCAUGU.
In the case of B26, the binding signal was 0.0118 KA relative to UGCAUGU.
In the case of B27, the binding signal is 0.0254 KA relative to UGCAUGU.
The same measure for B28: 0.0132 KA relative to UGCAUGU.
As for B29, the binding signal was 0.0223 KA relative to UGCAUGU.
Turning to B30, the binding signal was 0.00623 KA relative to UGCAUGU.
The same measure for B31: 0.00324 KA relative to UGCAUGU.

For the origin of these results see paper PMC9911399, “Two distinct binding modes provide the RNA-binding protein RbFox with extraordinary sequence specificity”.
